We go through 31 molecules from publication PMC9911399, “Two distinct binding modes provide the RNA-binding protein RbFox with extraordinary sequence specificity”.

Residue numbers refer to the chain shown, from its start. The list shows a part of the results.

T1: RBFOX1 RRM RbFoxmut (Fox-RRM*) (Homo sapiens, UniProt Q9NWB1 109-208, R118D;E147R;N151S;E152T)
T1 sequence: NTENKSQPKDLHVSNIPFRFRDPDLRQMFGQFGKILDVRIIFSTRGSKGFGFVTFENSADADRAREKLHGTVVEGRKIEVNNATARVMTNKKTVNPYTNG

B1: CCUCCCA (DNA:RNA)
RNA: GGGAGACCGGAAUUCAGAUUGUCCCCUCCCAUUAAAUCCCGUCGUAGCCACCA
DNA 1: CAATCTGAATTCCGGTCTCCC
DNA 2: TGGTGGCTACGACGGGATT
B2: CAUCCCA (DNA:RNA)
RNA: B1 RNA with C26A
DNA 1: CAATCTGAATTCCGGTCTCCC
DNA 2: TGGTGGCTACGACGGGATT
B3: UACGAUU (DNA:RNA)
RNA: GGGAGACCGGAAUUCAGAUUGUCCUACGAUUUUAAAUCCCGUCGUAGCCACCA
DNA 1: CAATCTGAATTCCGGTCTCCC
DNA 2: TGGTGGCTACGACGGGATT
B4: AAAGGAC (DNA:RNA)
RNA: B3 RNA with U25A, C27A, A29G, U30A, U31C
DNA 1: CAATCTGAATTCCGGTCTCCC
DNA 2: TGGTGGCTACGACGGGATT
B5: UUAAAUU (DNA:RNA)
RNA: B3 RNA with A26U, C27A, G28A
DNA 1: CAATCTGAATTCCGGTCTCCC
DNA 2: TGGTGGCTACGACGGGATT
B6: GAGGUUG (DNA:RNA)
RNA: B3 RNA with U25G, C27G, A29U, U31G
DNA 1: CAATCTGAATTCCGGTCTCCC
DNA 2: TGGTGGCTACGACGGGATT
B7: UAUUAAA (DNA:RNA)
RNA: B3 RNA with C27U, G28U, U30A, U31A
DNA 1: CAATCTGAATTCCGGTCTCCC
DNA 2: TGGTGGCTACGACGGGATT
B8: AAUACUG (DNA:RNA)
RNA: B1 RNA with C25A, C26A, C28A, C30U, A31G
DNA 1: CAATCTGAATTCCGGTCTCCC
DNA 2: TGGTGGCTACGACGGGATT
B9: CGGAUUA (DNA:RNA)
RNA: B1 RNA with C26G, U27G, C28A, C29U, C30U
DNA 1: CAATCTGAATTCCGGTCTCCC
DNA 2: TGGTGGCTACGACGGGATT
B10: GCGAGCC (DNA:RNA)
RNA: B1 RNA with C25G, U27G, C28A, C29G, A31C
DNA 1: CAATCTGAATTCCGGTCTCCC
DNA 2: TGGTGGCTACGACGGGATT
B11: ACUUACU (DNA:RNA)
RNA: B1 RNA with C25A, C28U, C29A, A31U
DNA 1: CAATCTGAATTCCGGTCTCCC
DNA 2: TGGTGGCTACGACGGGATT
B12: UAUACAG (DNA:RNA)
RNA: B1 RNA with C25U, C26A, C28A, C30A, A31G
DNA 1: CAATCTGAATTCCGGTCTCCC
DNA 2: TGGTGGCTACGACGGGATT
B13: CUCUGGG (DNA:RNA)
RNA: B1 RNA with C26U, U27C, C28U, C29G, C30G, A31G
DNA 1: CAATCTGAATTCCGGTCTCCC
DNA 2: TGGTGGCTACGACGGGATT
B14: AUGUAAA (DNA:RNA)
RNA: B1 RNA with C25A, C26U, U27G, C28U, C29A, C30A
DNA 1: CAATCTGAATTCCGGTCTCCC
DNA 2: TGGTGGCTACGACGGGATT
B15: ACGUAGA (DNA:RNA)
RNA: B1 RNA with C25A, U27G, C28U, C29A, C30G
DNA 1: CAATCTGAATTCCGGTCTCCC
DNA 2: TGGTGGCTACGACGGGATT
B16: GGGACUU (DNA:RNA)
RNA: B3 RNA with U25G, A26G, C27G, G28A, A29C
DNA 1: CAATCTGAATTCCGGTCTCCC
DNA 2: TGGTGGCTACGACGGGATT
B17: GAUUGCU (DNA:RNA)
RNA: B1 RNA with C25G, C26A, C28U, C29G, A31U
DNA 1: CAATCTGAATTCCGGTCTCCC
DNA 2: TGGTGGCTACGACGGGATT
B18: AACUCUG (DNA:RNA)
RNA: B3 RNA with U25A, G28U, A29C, U31G
DNA 1: CAATCTGAATTCCGGTCTCCC
DNA 2: TGGTGGCTACGACGGGATT
B19: CGGCCUU (DNA:RNA)
RNA: B1 RNA with C26G, U27G, C30U, A31U
DNA 1: CAATCTGAATTCCGGTCTCCC
DNA 2: TGGTGGCTACGACGGGATT
B20: UUAACGA (DNA:RNA)
RNA: B1 RNA with C25U, C26U, U27A, C28A, C30G
DNA 1: CAATCTGAATTCCGGTCTCCC
DNA 2: TGGTGGCTACGACGGGATT
B21: CACAACC (DNA:RNA)
RNA: B3 RNA with U25C, G28A, U30C, U31C
DNA 1: CAATCTGAATTCCGGTCTCCC
DNA 2: TGGTGGCTACGACGGGATT
B22: UCAAGGG (DNA:RNA)
RNA: B1 RNA with C25U, U27A, C28A, C29G, C30G, A31G
DNA 1: CAATCTGAATTCCGGTCTCCC
DNA 2: TGGTGGCTACGACGGGATT
B23: GUGGUCU (DNA:RNA)
RNA: B3 RNA with U25G, A26U, C27G, A29U, U30C
DNA 1: CAATCTGAATTCCGGTCTCCC
DNA 2: TGGTGGCTACGACGGGATT
B24: CUGCGCU (DNA:RNA)
RNA: B1 RNA with C26U, U27G, C29G, A31U
DNA 1: CAATCTGAATTCCGGTCTCCC
DNA 2: TGGTGGCTACGACGGGATT
B25: GGUUUGC (DNA:RNA)
RNA: B1 RNA with C25G, C26G, C28U, C29U, C30G, A31C
DNA 1: CAATCTGAATTCCGGTCTCCC
DNA 2: TGGTGGCTACGACGGGATT
B26: AAGGACU (DNA:RNA)
RNA: B3 RNA with U25A, C27G, U30C
DNA 1: CAATCTGAATTCCGGTCTCCC
DNA 2: TGGTGGCTACGACGGGATT
B27: GUUUGGG (DNA:RNA)
RNA: B1 RNA with C25G, C26U, C28U, C29G, C30G, A31G
DNA 1: CAATCTGAATTCCGGTCTCCC
DNA 2: TGGTGGCTACGACGGGATT
B28: UGGCGAU (DNA:RNA)
RNA: B3 RNA with A26G, C27G, G28C, A29G, U30A
DNA 1: CAATCTGAATTCCGGTCTCCC
DNA 2: TGGTGGCTACGACGGGATT
B29: GCCCCCC (DNA:RNA)
RNA: B1 RNA with C25G, U27C, A31C
DNA 1: CAATCTGAATTCCGGTCTCCC
DNA 2: TGGTGGCTACGACGGGATT
B30: AAUAACG (DNA:RNA)
RNA: B1 RNA with C25A, C26A, C28A, C29A, A31G
DNA 1: CAATCTGAATTCCGGTCTCCC
DNA 2: TGGTGGCTACGACGGGATT
B31: UGAGUGC (DNA:RNA)
RNA: B3 RNA with A26G, C27A, A29U, U30G, U31C
DNA 1: CAATCTGAATTCCGGTCTCCC
DNA 2: TGGTGGCTACGACGGGATT

The test addresses T1, RBFOX1 RRM RbFoxmut (Fox-RRM*). The experiment in a line: EMSA; HiTS-Eq, 1 nM pool, 10 min; buffer printed only for the single-RNA assays: 10 mM Tris pH 7.5, 150 mM NaCl, 3.4 mM EDTA, 0.001% NP-40, 30 C. The following applies: tags: His6 N-terminal (pET28a); label: 5' 32P. In outline: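 A pool of RNA with 7 randomized nucleotides, 5′-radiolabelled and with DNA-annealed flanks, was equilibrated at 1 nM for 10 min in 50 µL with purified RbFox RRM, wild type or mutant, across increasing protein concentrations. Free RNA was separated by 8% native PAGE, excised, reverse-transcribed, barcoded by PCR and sequenced. Relative association constants were obtained from read-count changes of each RNA species versus the control reaction and normalised to the cognate motif.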
For the molecule B1, the binding signal is 0.0646 KA relative to UGCAUGU.

In the case of B2, the binding signal was 0.0876 KA relative to UGCAUGU. To B3 belongs 0.0913 KA relative to UGCAUGU; to B4, 0.0621 KA relative to UGCAUGU; to B5, 0.0763 KA relative to UGCAUGU. Turning to B6, the binding signal was 0.552 KA relative to UGCAUGU.

In the case of B7, the binding signal is 0.0847 KA relative to UGCAUGU. Next, B8: 0.0774 KA relative to UGCAUGU; B9: 0.107 KA relative to UGCAUGU; B10: 0.115 KA relative to UGCAUGU.

Consider B11, for which the binding signal is 0.114 KA relative to UGCAUGU. Next, B12: 0.0616 KA relative to UGCAUGU; B13: 0.0876 KA relative to UGCAUGU.

With B14, the binding signal is 0.169 KA relative to UGCAUGU. Next, B15: 0.17 KA relative to UGCAUGU. Next, B16: 0.0648 KA relative to UGCAUGU. To B17 belongs 0.141 KA relative to UGCAUGU. Turning to B18, the binding signal is 0.0393 KA relative to UGCAUGU. To B19 belongs 0.056 KA relative to UGCAUGU; to B20, 0.0397 KA relative to UGCAUGU. Next, B21: 0.0569 KA relative to UGCAUGU. Next, B22: 0.08 KA relative to UGCAUGU; B23: 0.115 KA relative to UGCAUGU; B24: 0.103 KA relative to UGCAUGU. Regarding B25, the binding signal is 0.199 KA relative to UGCAUGU. Next, B26: 0.0566 KA relative to UGCAUGU. Next, B27: 0.122 KA relative to UGCAUGU; B28: 0.0717 KA relative to UGCAUGU. To B29 belongs 0.0323 KA relative to UGCAUGU. B30: the binding signal was 0.0895 KA relative to UGCAUGU. Next, B31: 0.112 KA relative to UGCAUGU.
